Data taken from patent US9890126B2 (priority 2012, dated 2018).

Experiments:
Test in all cases: microbe, parasite or virus in culture
[1] = test system: P. falciparum D6; details: Plasmodium falciparum, D6, 72 h, read-out: SYBR Green D6 IC50
[2] = test system: P. falciparum C235; details: Plasmodium falciparum, 72 h, read-out: SYBR Green C235 IC50
[3] = test system: P. falciparum W2; details: Plasmodium falciparum, W2, 72 h, read-out: SYBR Green W2 IC50

Oc1ccc(-c2cncn2CCc2c(Cl)cccc2Cl)cc1 [HGN0098]
IC50 [1]: 10.2 µM
IC50 [2]: 14.4 µM
IC50 [3]: 8.38 µM

NC(=O)c1c[nH]nc1NC(=O)c1c[nH]c2ncccc12 [HGN-0002]
IC50 [1]: > 40 µM
IC50 [2]: > 40 µM
IC50 [3]: > 40 µM

NC(=O)c1c[nH]nc1NC(=O)c1cncs1 [HGN-0004]
IC50 [1]: > 40 µM
IC50 [2]: > 40 µM
IC50 [3]: > 40 µM

Nc1ccn([C@@H]2O[C@H](CNC(=O)c3ccncc3)[C@@H](O)[C@H]2O)c(=O)n1 [HGN-0005]
IC50 [1]: > 40 µM
IC50 [2]: > 40 µM
IC50 [3]: > 40 µM

NC(=O)c1c[nH]nc1NC(=O)Cc1cn2ccsc2n1 [HGN-0009]
IC50 [1]: > 40 µM
IC50 [2]: > 40 µM
IC50 [3]: > 40 µM

NC(=O)c1c[nH]nc1NC(=O)c1cnc2sccn12 [HGN-0010]
IC50 [1]: > 40 µM
IC50 [2]: > 40 µM
IC50 [3]: > 40 µM

O=C([O-])c1cnc(Nc2ccc(-c3ccncc3)cc2)nc1[O-].[Na+].[Na+] [HGN-0013]
IC50 [1]: > 40 µM
IC50 [2]: > 40 µM
IC50 [3]: > 40 µM

O=C([O-])c1cnc(Nc2ccc(Br)cc2)nc1[O-].[Na+].[Na+] [HGN-0014]
IC50 [1]: > 40 µM
IC50 [2]: > 40 µM
IC50 [3]: > 40 µM

CCOC(=O)c1cnc(Nc2ccc(-c3ccncc3)cc2)[nH]c1=O [HGN-0015]
IC50 [1]: > 40 µM
IC50 [2]: > 40 µM
IC50 [3]: > 40 µM

CCOC(=O)c1cnc(NCC2CCCO2)[nH]c1=O (stereo not drawn) [HGN-0017, ethyl 6-oxo-2-(((tetrahydrofuran-2-yl)methyl)amino)-1,6-dihydropyrimidine-5-carboxylate]
IC50 [1]: > 40 µM
IC50 [2]: > 40 µM
IC50 [3]: > 40 µM

CC(C)n1cncc1-c1ccc(O)cc1 [HGN-0018]
IC50 [1]: > 40 µM
IC50 [2]: > 40 µM
IC50 [3]: > 40 µM

Oc1ccc(-c2cncn2Cc2ccco2)cc1 [HGN-0019]
IC50 [1]: 11.3 µM
IC50 [2]: 13.3 µM
IC50 [3]: 13.6 µM

Oc1ccc(-c2cncn2CCc2c[nH]c3ccccc23)cc1 [HGN-0020]
IC50 [1]: 4.2 µM
IC50 [2]: 7.2 µM
IC50 [3]: 5.6 µM

Oc1ccc(-c2cncn2Cc2ccccc2)cc1 [HGN-0021]
IC50 [1]: 6 µM
IC50 [2]: 7.7 µM
IC50 [3]: 6 µM

Oc1ccc(-c2cncn2CCc2ccccc2)cc1 [HGN-0022]
IC50 [1]: > 40 µM
IC50 [2]: > 40 µM
IC50 [3]: > 40 µM

O=C([O-])c1cnc(NCCc2ccc(Cl)cc2)nc1[O-].[Na+].[Na+] [HGN-0028]
IC50 [1]: > 40 µM
IC50 [2]: > 40 µM
IC50 [3]: > 40 µM

Oc1ccc(-n2ccnc2)cc1 [HGN-0029]
IC50 [1]: > 40 µM
IC50 [2]: > 40 µM
IC50 [3]: > 40 µM

Cn1cncc1C(O)c1ccccc1 (stereo not drawn) [HGN-0031]
IC50 [1]: > 40 µM
IC50 [2]: > 40 µM
IC50 [3]: > 40 µM

CCOC(=O)c1cnc(Nc2ccc(-c3ccccc3)cc2)[nH]c1=O [HGN-0033, ethyl 2-((1,1′-biphenyl)-4-ylamino)-6-oxo-1,6-dihydropyrimidine-5-carboxylate]
IC50 [1]: > 40 µM
IC50 [2]: > 40 µM
IC50 [3]: > 40 µM

CCOC(=O)c1cnc(Nc2ccc(N3CCCCC3)cc2)[nH]c1=O [HGN-0034, ethyl 6-oxo-2-((4-(piperidin-1-yl)phenyl)amino)-1,6-dihydropyrimidine-5-carboxylate]
IC50 [1]: > 40 µM
IC50 [2]: > 40 µM
IC50 [3]: > 40 µM

CCOC(=O)c1cnc(Nc2ccc(N3CCOCC3)cc2)[nH]c1=O [HGN-0037]
IC50 [1]: > 40 µM
IC50 [2]: > 40 µM
IC50 [3]: > 40 µM

CCOC(=O)c1cnc(NCCc2ccc(Cl)cc2)[nH]c1=O [HGN-0038, Ethyl 2-((4-chlorophenethyl)amino)-6-oxo-1,6-dihydropyrimidine-5-carboxylate]
IC50 [1]: > 40 µM
IC50 [2]: > 40 µM
IC50 [3]: > 40 µM

CCOC(=O)c1cnc(Nc2cccc(-c3ccccc3)c2)[nH]c1=O [HGN-0039]
IC50 [1]: > 40 µM
IC50 [2]: > 40 µM
IC50 [3]: > 40 µM

CCOC(=O)c1cnc(Nc2ccc3cn[nH]c3c2)[nH]c1=O [HGN-0040, Ethyl 2-((1H-indazol-6-yl)amino)-6-oxo-1,6-dihydropyrimidine-5-carboxylate]
IC50 [1]: > 40 µM
IC50 [2]: > 40 µM
IC50 [3]: > 40 µM

CCOC(=O)c1cnc(Nc2ccc(CC(=O)O)cc2)[nH]c1=O [HGN-0041, 2-(4-((5-(ethoxycaronyl)-6-oxo-1,6-dihydropyrimidin-2-yl)amino)phenyl)acetic acid]
IC50 [1]: > 40 µM
IC50 [2]: > 40 µM
IC50 [3]: > 40 µM

CCOC(=O)c1cnc(Nc2ccc3[nH]ncc3c2)[nH]c1=O [HGN-0042, Ethyl 2-((1H-indazol-5-yl)amino)-6-oxo-1,6-dihydropyrimidine-5-carboxylate]
IC50 [1]: > 40 µM
IC50 [2]: > 40 µM
IC50 [3]: > 40 µM

O=C([O-])c1cnc(Nc2cccc(-c3ccccc3)c2)nc1[O-].[Na+].[Na+] [HGN-0044, Sodium 2-([1,1′-biphenyl]-3-ylamino)-4-oxidopyrimidine-5-carboxylate]
IC50 [1]: > 40 µM
IC50 [2]: > 40 µM
IC50 [3]: > 40 µM

O=C([O-])c1cnc(Nc2ccc3cn[nH]c3c2)nc1[O-].[Na+].[Na+] [HGN-0045, Sodium 2-((1H-indazol-6-yl)amino)-4-oxoidopyrimidine-5-carboxylate]
IC50 [1]: > 20 µM
IC50 [2]: > 20 µM
IC50 [3]: > 20 µM

CCOC(=O)c1cnc(NCc2ccco2)[nH]c1=O [HGN-0047, Ethyl 2-((furan-2-ylmethyl)amino)-6-oxo-1,6-diydropyrimidine-5-carboxylate]
IC50 [1]: > 40 µM
IC50 [2]: > 40 µM
IC50 [3]: > 40 µM

Oc1ccc(CCn2cncc2-c2ccc(O)cc2)cc1 [HGN-0048]
IC50 [1]: > 40 µM
IC50 [2]: > 40 µM
IC50 [3]: > 40 µM

O=C([O-])c1cnc(NCc2ccco2)nc1[O-].[Na+].[Na+] [HGN-0049]
IC50 [1]: 0.55 µM
IC50 [2]: 0.74 µM
IC50 [3]: 0.95 µM

Oc1ccc(-c2cncn2CCc2ccc(Cl)cc2)cc1 [HGN-0051]
IC50 [1]: 1.7 µM
IC50 [2]: 3.4 µM
IC50 [3]: 0.59 µM

OC(Cn1cnc(-c2ccccc2)c1-c1ccccc1)c1ccccc1 (stereo not drawn) [HGN-0060]
IC50 [1]: 1.6 µM
IC50 [2]: 2.7 µM
IC50 [3]: 3.1 µM

Cn1ccnc1C(O)Cc1ccccc1 (stereo not drawn) [HGN-0061]
IC50 [1]: 6.1 µM
IC50 [2]: 8.3 µM
IC50 [3]: 6.4 µM

CC(c1ccccc1)C(O)c1nccn1-c1ccccc1 (stereo not drawn) [HGN-0062]
IC50 [1]: 3.8 µM
IC50 [2]: 8.3 µM
IC50 [3]: 7.3 µM

OC(Cn1ccnc1-c1ccccc1)c1ccccc1 (stereo not drawn) [HGN-0063]
IC50 [1]: > 40 µM
IC50 [2]: > 40 µM
IC50 [3]: > 40 µM

Oc1ccc(-c2cncn2Cc2cccc(Cl)c2)cc1 [HGN-0090]
IC50 [1]: 5.8 µM
IC50 [2]: 6.15 µM
IC50 [3]: 3.94 µM

Oc1ccc(-c2cncn2Cc2ccccc2Cl)cc1 [HGN-0091]
IC50 [1]: 3.18 µM
IC50 [2]: 4.87 µM
IC50 [3]: 3.53 µM

Oc1ccc(-c2cncn2Cc2ccc(F)cc2)cc1 [HGN-0093]
IC50 [1]: 5.83 µM
IC50 [2]: 6.34 µM
IC50 [3]: 3.36 µM

Oc1ccc(-c2cncn2Cc2ccc(Cl)cc2)cc1 [HGN-0094]
IC50 [1]: 8.88 µM
IC50 [2]: 9.12 µM
IC50 [3]: 6.22 µM

Oc1ccc(-c2cncn2CCc2ccc(F)cc2)cc1 [HGN-0095]
IC50 [1]: 6.1 µM
IC50 [2]: 6.59 µM
IC50 [3]: 4.05 µM

Oc1ccc(-c2cncn2CCc2ccccc2Cl)cc1 [HGN-0096]
IC50 [1]: 9.8 µM
IC50 [2]: 12.9 µM
IC50 [3]: 7.9 µM

Oc1ccc(-c2cncn2CCc2cccc(F)c2)cc1 [HGN-0097]
IC50 [1]: 10.2 µM
IC50 [2]: 5.18 µM
IC50 [3]: 2.12 µM

Oc1ccc(-c2cncn2CCc2ccc(Cl)cc2Cl)cc1 [HGN-0099]
IC50 [1]: 5.36 µM
IC50 [2]: 5.44 µM
IC50 [3]: 4.25 µM

Oc1ccc(-c2cncn2CCc2ccc(Cl)c(Cl)c2)cc1 [HGN-0100]
IC50 [1]: 4.28 µM
IC50 [2]: 9.37 µM
IC50 [3]: 5.65 µM

Nc1ccn([C@@H]2O[C@H](CNC(=O)Cc3cn4ccsc4n3)[C@@H](O)[C@H]2O)c(=O)n1 [HGN-0102]
IC50 [1]: > 40 µM
IC50 [2]: > 40 µM
IC50 [3]: > 40 µM

Oc1ccc(-c2cncn2Cc2ccccc2F)cc1 [HGN-0106]
IC50 [1]: 3 µM
IC50 [2]: 3.52 µM
IC50 [3]: 4.1 µM

Oc1ccc(-c2cncn2CCc2ccccc2F)cc1 [HGN-0107]
IC50 [1]: 5.65 µM
IC50 [2]: 7.29 µM
IC50 [3]: 4.09 µM

Oc1ccc(-c2cncn2CCc2cccc(Cl)c2)cc1 [HGN-0108]
IC50 [1]: 11.5 µM
IC50 [2]: 13.8 µM
IC50 [3]: 7.22 µM

Oc1ccc(-c2cncn2Cc2cccc(F)c2)cc1 [HGN-0109]
IC50 [1]: 4.8 µM
IC50 [2]: 5.74 µM
IC50 [3]: 3.16 µM

CCOC(=O)c1cnc(NCCc2ccc(F)cc2)[nH]c1=O [HGN-0111]
IC50 [1]: > 40 µM
IC50 [2]: > 40 µM
IC50 [3]: > 40 µM

CCOC(=O)c1cnc(NCc2ccc(F)cc2)[nH]c1=O [HGN-0113]
IC50 [1]: 29.3 µM
IC50 [2]: > 40 µM
IC50 [3]: > 40 µM

CCOC(=O)c1cnc(NCCc2cccc(F)c2)[nH]c1=O [HGN-0115]
IC50 [1]: 17.4 µM
IC50 [2]: 27.6 µM
IC50 [3]: 17.6 µM

CCOC(=O)c1cnc(NCc2ccccc2Cl)[nH]c1=O [HGN-0121]
IC50 [1]: 34.5 µM
IC50 [2]: > 40 µM
IC50 [3]: > 40 µM

CCOC(=O)c1cnc(NCc2ccc(Cl)cc2)[nH]c1=O [HGN-0125]
IC50 [1]: > 40 µM
IC50 [2]: 19.7 µM
IC50 [3]: 16 µM

O=C([O-])c1cnc(NCc2ccc(Cl)cc2)nc1[O-].[Na+].[Na+] [HGN-0126]
IC50 [1]: > 40 µM
IC50 [2]: > 40 µM
IC50 [3]: > 40 µM

CCOC(=O)c1cnc(NCc2cc(Cl)ccc2Cl)[nH]c1=O [HGN-0127]
IC50 [1]: > 40 µM
IC50 [2]: > 40 µM
IC50 [3]: 17.7 µM

CCOC(=O)c1cnc(NCc2ccc(Cl)c(Cl)c2)[nH]c1=O [HGN-0129]
IC50 [1]: 26.9 µM
IC50 [2]: 33 µM
IC50 [3]: 13.2 µM

CCOC(=O)c1cnc(NCc2ccccc2F)[nH]c1=O [HGN-0133]
IC50 [1]: > 40 µM
IC50 [2]: > 40 µM
IC50 [3]: > 40 µM
